# Assay results reported in article PMC4336329 (PLoS ONE, 2015).
# Screen size: about 310,000 compounds; about 2,200 (0.71%) showed an effect of 50% or more. Effects have a minus sign here. Some of the results follow.
# Target: human ether-à-go-go-related gene (hERG) potassium channel (human, UniProt Q12809)
# Assay: primary screen, population patch clamp on CHO cells stably expressing hERG
# human ether-à-go-go-related gene (hERG) potassium channel, sequence (Q12809 whole entry, looked up): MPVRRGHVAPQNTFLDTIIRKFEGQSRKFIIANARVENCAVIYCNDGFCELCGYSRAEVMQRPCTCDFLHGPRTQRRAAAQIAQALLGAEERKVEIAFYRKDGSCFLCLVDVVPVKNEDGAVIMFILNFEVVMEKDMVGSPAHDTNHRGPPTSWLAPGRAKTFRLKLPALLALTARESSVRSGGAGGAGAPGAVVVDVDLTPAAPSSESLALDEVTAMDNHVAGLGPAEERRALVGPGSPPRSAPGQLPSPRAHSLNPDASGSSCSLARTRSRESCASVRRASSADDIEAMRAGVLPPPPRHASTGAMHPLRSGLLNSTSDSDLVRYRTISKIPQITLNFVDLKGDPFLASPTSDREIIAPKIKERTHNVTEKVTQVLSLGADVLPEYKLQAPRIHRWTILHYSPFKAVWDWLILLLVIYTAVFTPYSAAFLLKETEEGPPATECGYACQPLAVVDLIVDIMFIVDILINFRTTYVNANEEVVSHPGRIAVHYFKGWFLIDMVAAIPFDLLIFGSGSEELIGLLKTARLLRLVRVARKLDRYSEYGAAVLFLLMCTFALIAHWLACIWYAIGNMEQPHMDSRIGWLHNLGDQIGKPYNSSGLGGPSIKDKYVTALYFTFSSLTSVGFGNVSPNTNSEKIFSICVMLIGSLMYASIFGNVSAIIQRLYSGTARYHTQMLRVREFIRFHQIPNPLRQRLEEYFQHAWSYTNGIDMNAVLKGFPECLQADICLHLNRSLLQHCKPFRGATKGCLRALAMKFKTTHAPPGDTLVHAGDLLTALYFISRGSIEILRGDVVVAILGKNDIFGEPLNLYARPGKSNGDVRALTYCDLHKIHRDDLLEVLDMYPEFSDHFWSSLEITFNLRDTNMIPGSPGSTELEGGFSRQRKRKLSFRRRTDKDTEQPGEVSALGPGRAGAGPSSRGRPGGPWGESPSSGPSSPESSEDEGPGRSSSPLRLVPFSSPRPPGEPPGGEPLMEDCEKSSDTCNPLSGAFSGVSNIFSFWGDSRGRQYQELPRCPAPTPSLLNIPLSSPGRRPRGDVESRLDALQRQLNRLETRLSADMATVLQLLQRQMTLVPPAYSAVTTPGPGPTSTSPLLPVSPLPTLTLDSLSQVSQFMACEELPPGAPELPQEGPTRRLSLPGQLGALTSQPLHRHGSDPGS
row,SMILES,"hERG current change (%, negative = inhibition) at 1uM"
1,CSc1nnc2c3c4c(sc3c(=O)n(-c3ccccc3)n12)CC(C)(C)OC4,8.51%
2,O=C(Nc1nccs1)c1ccc(-c2ccc(F)cc2)o1,10.4%
3,COc1ccc2c(c1)c(CC(=O)OCC(N)=O)c(C)n2C(=O)c1ccc(Cl)cc1,6.99%
4,COc1cc(-c2nnc(NC(=O)CS(=O)(=O)c3ccc(F)cc3)o2)cc(OC)c1OC,17.8%
5,COc1ccc(C(=O)CN2CCN(S(=O)(=O)c3cccc([N+](=O)[O-])c3)CC2)cc1,-64.3%
6,CN(C)C(/C=C/Nc1cccc(Br)c1)=C(C#N)C#N,16.9%
7,Brc1ccc(-c2cn3ccccc3n2)s1,2.2%
8,Cc1nonc1N1CCN(Cc2cn[nH]c2-c2ccc3c(c2)OCO3)CC1,5.53%
9,Cc1ccc(-c2cc(C(=O)N3CCCc4ccccc43)c3ccccc3n2)cc1,8.11%
10,CCCCOC(=O)C1=C(C)NC(=O)NC1c1cc2c(cc1Br)OCO2 (stereo not drawn),13.1%
11,COc1ccc(N2C(=NC(=O)c3ccc(Br)cc3)SC3CS(=O)(=O)CC32)cc1 (stereo not drawn),9.53%
12,Cc1nc(Cl)c(C#N)cc1-c1ccccc1,-0.883%
13,COc1ccc(-c2cn3cc(C)ccc3n2)cc1Br,16.3%
14,Cc1c(/C=C/C(=O)c2ccc(C(C)C)cc2)cnn1C,2.64%
15,CCn1cc(C(=O)N2CC(C)CC(C)C2)c(=O)c2cc(S(=O)(=O)N3CCCC3)ccc21 (stereo not drawn),13.8%
16,COc1ccc(C(=O)NC(=S)Nc2ccc(CN3CCOCC3)cc2)cc1Br,15.3%
17,CSCCC(NC(=O)c1ccccc1Cl)C(=O)NCC(c1ccco1)N1CCCCC1 (stereo not drawn),14.6%
18,COc1ccc(-c2cc(C(=O)N3CCN(c4ccc(F)cc4)CC3)no2)cc1OC,11.6%
19,CC1CCCCC1NC(=S)Nc1ccc(Cl)cc1Cl (stereo not drawn),5.95%
20,CCOC(=O)c1c(NC(=O)C(=O)N/N=C(\C)c2ccc(OC)cc2)sc2c1CCCCC2,8.9%
21,COc1ccc(CNS(=O)(=O)c2ccc(-c3cc(C)no3)cc2)cc1,8.68%
22,Cc1c(C(=O)O)sc2nc(/C=C/c3ccccc3OC(F)F)[nH]c(=O)c12,5.17%

row,SMILES,"hERG current change (%, negative = inhibition) at 1uM"
1,COc1cc(-c2nn3c(COc4ccccc4)nnc3s2)cc(OC)c1OC,21.7%
2,O=C(O)C1=C[C@H](c2cccs2)C[C@H](OCCCCO)O1,10.6%
3,COc1ccc2c(COC(=O)CNS(=O)(=O)c3ccc(C)c(C)c3)cc(=O)oc2c1,11.5%
4,COC(=O)c1ccccc1C(=O)c1ccc2c(c1)NC(=O)CO2,13.8%
5,Cn1c(=O)[nH]c(=O)c2c1nc(N1CCNCC1)n2Cc1ccccc1Cl,14.6%
6,CCCCOc1ccc(CSC(CC(=O)O)C(=O)O)cc1 (stereo not drawn),17.4%
7,O=C(Cn1cc(C(=O)c2cccs2)c2ccccc21)NCC1CCCO1 (stereo not drawn),16.3%
8,Cc1cc(Cl)ccc1OCC(=O)N1C(C)CCCC1C (stereo not drawn),-10.8%
9,COc1ccc(S(=O)(=O)Cc2ccc(C(=O)NCCCN(C)c3ccccc3)o2)cc1,-6.34%
10,CCCCCCCCCCNC(=O)CCn1[nH]c(=O)c2ccccc2c1=O,12%
11,COc1ccc(S(=O)(=O)NCc2ccccc2)cc1,-6.58%
12,COc1ccc(CCNC(=O)CSc2cn(Cc3ccccc3)c3ccccc23)cc1OC,7.53%
13,Cc1csc(NC(=O)c2sc3nc(-c4cccs4)ccc3c2N)n1,9.18%
14,O=C1COCCOCCOCC(=O)NCCN1,15%
15,C=C(C)CN1CC[C@]23c4c5ccc(O)c4O[C@H]2c2[nH]c4ccccc4c2C[C@@]3(O)C1C5.Cl.O,12.8%
16,O=C(Cc1cccs1)Nc1nnc(SCC(=O)N2CCCCC2)s1,3.07%
17,Cc1ccc(-c2csc3ncn(CC(N)=O)c(=O)c23)cc1C,15.1%
18,CCNc1nc(NCC)n2c(SCC(=O)N(CC)C3CCCCC3)nnc2n1,11.8%
19,COc1ccc(CCNC(=O)C2CCCN2C(=O)Nc2cccc(OC)c2)cc1 (stereo not drawn),12.2%
20,O=C(Nc1ccc2c(c1)OCO2)C1CCCN1C(=O)OCc1ccccc1 (stereo not drawn),5.86%
21,Cc1cc(S(=O)(=O)n2cnc3cc([N+](=O)[O-])ccc32)ccc1Cl,4.33%
22,Cc1ccc(S(=O)(=O)N(CC(=O)N2CCN(c3ccc(F)cc3)CC2)C2CCCCC2)cc1,-9.32%

row,SMILES,"hERG current change (%, negative = inhibition) at 1uM"
1,CCOc1ccc(-c2nnc(-c3ccco3)o2)cc1OCC,3.42%
2,O=C(NC1CCCCC1)C(c1ccncc1)N(C(=O)c1csnn1)c1ccc(F)cc1 (stereo not drawn),19.8%
3,CC(NC(=O)c1cc(-c2ccc(Br)cc2)on1)c1ccccc1 (stereo not drawn),-2.12%
4,O=C(COC(=O)C1=COCCO1)Nc1ccccc1OC(F)F,9.37%
5,C#C[C@@]1(O)CCC2C3CCC4=C/C(=N/OCC(=O)NC(C(=O)O)C(C)O)CC[C@]4(C)C3CC[C@@]21C (stereo partly drawn),5.8%
6,CC(Oc1ccc(Cl)cc1)C(=O)Nc1cccc(S(=O)(=O)N2CCOCC2)c1 (stereo not drawn),3.87%
7,CCN(CC)S(=O)(=O)c1cc(C(=O)OCC(=O)c2ccc3c(c2)NC(=O)CO3)ccc1F,6.35%
8,CC(Oc1ccccc1)C(=O)N1CCN=C1SCc1ccccc1 (stereo not drawn),1.83%
9,O=C(c1ccc(Cl)cc1)C1CCN(C(=O)N2CCOCC2)CC1,1.22%
10,CCOC(=O)c1ccccc1NS(=O)(=O)c1ccc(C)cc1,14.3%
11,CCCCOC(=O)C(C)c1c(C)[nH]c(=S)[nH]c1=O (stereo not drawn),16.7%
12,Cc1cccc(NC(=S)NCC(C)CSc2ccc(Cl)cc2)c1 (stereo not drawn),23.9%
13,Cc1cccc(NC(=O)NCCN2CCN(c3ccccc3)CC2)c1C,9.29%
14,CCn1c(COc2ccc(C)cc2)nc2ccccc21,4.9%
15,CC(C)(C)C(=O)O/N=C(\N)c1ccc(Oc2cc(Cl)cc(Cl)c2)c([N+](=O)[O-])c1,11.2%
16,Cc1ccc(S(=O)(=O)N2CCC(C(=O)NCC3CCCCC3)CC2)cc1,9.39%
17,COc1ccc(-n2ccc(=O)c(C(=O)Nc3ccc(S(=O)(=O)Nc4nccs4)cc3)n2)cc1,4.7%
18,O=[N+]([O-])c1ccc2ccn(C3OCC(O)C(O)C3O)c2c1 (stereo not drawn),11.7%
19,Cc1ccccc1C(=O)N1CCN(c2ccc(NC(=O)c3cccnc3)cc2)CC1,2.32%
20,CCOC(=O)O[C@]1(C(=O)OCCl)CC[C@H]2[C@@H]3CCC4=CC(=O)C=C[C@]4(C)[C@H]3[C@@H](O)C[C@@]21C,10.9%
21,O=C(COc1ccc(Cl)cc1[N+](=O)[O-])N1CCCCCC1,12.5%
22,COc1ccc(CN2CCN(C(C)C(=O)N3CCc4ccccc43)CC2)cc1OC (stereo not drawn),-52.3%

row,SMILES,"hERG current change (%, negative = inhibition) at 1uM"
1,COc1ccccc1NC(=O)CCc1nnc2ccc(N3CCN(C)CC3)nn12,16.1%
2,c1ccc(N=Nc2ccc3cccccc2-3)cc1,12%
3,CSc1nsc(SCC(=O)N2CCN(c3ccccc3)CC2)n1,6.28%
4,CN(C)C(=O)c1ccc(Nc2nnc(-c3ccc(O)cc3)c3ccccc23)cc1,3.02%
5,CCN(CC)c1nc2cc(C)ccc2cc1/C=C(\C#N)C(N)=O,1.71%
6,CSc1ccccc1NC(=O)COc1ccc(S(=O)(=O)N2CCCC2)cc1,3.75%
7,CCOc1ccc(CN(C)CC(=O)NCc2ccccc2Cl)cc1,-73.6%
8,CCN(CC(=O)Nc1ccc(C(=O)Nc2ccc(OC)cc2)cc1)Cc1nc2ccccc2c(=O)[nH]1,16.9%
9,O=C(NCc1cnc2ccccn12)C1CCC(=O)N(Cc2cccc(F)c2)C1 (stereo not drawn),18%
10,CC(C)CC(=O)N1CCN(Cc2ccccc2[N+](=O)[O-])CC1.O=C(O)C(=O)O,17.5%
11,COc1cccc(CNC(=O)c2cc(COc3c(F)cccc3F)on2)c1,10.4%
12,CCOc1cc(/C=C2/C(=O)ON=C2C)ccc1OCc1ccc(F)cc1,18.2%
13,Cc1[nH]nc2ncc(C(=O)c3cc(Cl)cc(Cl)c3O)cc12,10.1%
14,C/C(=N\N=C(N)N)c1cccc([N+](=O)[O-])c1,5.97%
15,O=C(NCCC1=CCCCC1)c1c(O)nc2ccccn2c1=O,18.8%
16,CCOc1ccc(C2=C(C=Nc3c(C)n(C)n(-c4ccccc4)c3=O)C(c3ccc(F)cc3)c3ccccc3O2)cc1 (stereo not drawn),7.07%
17,CCCCn1c(N)c(N(CCOC)C(=O)c2ccc(-c3ccccc3)cc2)c(=O)[nH]c1=O,14.3%
18,CCOC(=O)C1CCN(C(=O)C(CCSC)NC(=O)c2ccccc2OC)CC1 (stereo not drawn),4.72%
19,COc1ccc(N(Cc2cc3cc(C)ccc3[nH]c2=O)C(C)=O)cc1,12.1%
20,Cc1cc(S(=O)(=O)NCCc2ccncc2)cc(C)c1F,8.58%
21,COC(=O)c1c(C(=O)OC)c(-c2cccc(C)c2)n2c1CS(=O)(=O)C2,-13.9%
